The target of assay [1] is T1, ….
T1 sequence (peptide, biotinylated; C-terminal glycine not from CLPTM1): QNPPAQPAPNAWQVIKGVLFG
The experiment in a line: ELISA: biotinylated CLPTM1 peptide on streptavidin plate, GDF15 at 100 ng/ml, detected with goat anti-GDF15 and anti-goat-HRP. A general note: In an ELISA, binding on a coated surface is turned into a signal by an enzyme label.

The target of assay [2] is T2, ….
T2 sequence (peptide, biotinylated; C-terminal glycine not from CLPTM1): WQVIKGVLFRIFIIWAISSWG
The assay is described as above. The source holds these as a separate data set.

The target of assay [3] is T3, ….
T3 sequence (peptide, biotinylated; C-terminal glycine not from CLPTM1): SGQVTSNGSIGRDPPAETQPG
The description is as above. This is another data set of the same source.

Assay [4] addresses T4, ….
T4 sequence (peptide, biotinylated; C-terminal glycine not from CLPTM1): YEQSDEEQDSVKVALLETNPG
Described as above. The source holds these as a separate data set.

Assay [5] has as its target T5, ….
T5 sequence (peptide, biotinylated; C-terminal glycine not from CLPTM1): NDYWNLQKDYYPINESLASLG
Described as above. The source holds these as a separate data set.

Assay [6] addresses T6, ….
T6 sequence (peptide, biotinylated; C-terminal glycine not from CLPTM1): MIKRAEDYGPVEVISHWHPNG
The assay is described as above. The source holds these as a separate data set.

The target of assay [7] is T7, ….
T7 sequence (peptide, biotinylated; C-terminal glycine not from CLPTM1): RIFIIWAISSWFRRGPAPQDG
The description is as above. The source holds these as a separate data set.

In assay [8] the target is T8, ….
T8 sequence (peptide, biotinylated; C-terminal glycine not from CLPTM1): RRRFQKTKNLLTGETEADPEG
The description is as above. This is another data set of the same source.

Assay [9] deals with T9, ….
T9 sequence (peptide, biotinylated; C-terminal glycine not from CLPTM1): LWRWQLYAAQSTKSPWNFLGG
The assay is described as above. The source holds these as a separate data set.

Assay [10] addresses T10, ….
T10 sequence (peptide, biotinylated; C-terminal glycine not from CLPTM1): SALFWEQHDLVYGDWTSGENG
Described as above. The source holds these as a separate data set.

Assay [11] has as its target T11, ….
T11 sequence (peptide, biotinylated; C-terminal glycine not from CLPTM1): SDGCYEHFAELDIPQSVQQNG
The assay is described as above. The source holds these as a separate data set.

Assay [12] addresses T12, ….
T12 sequence (peptide, biotinylated; C-terminal glycine not from CLPTM1): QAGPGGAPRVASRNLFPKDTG
Described as above. This is another data set of the same source.

In assay [13] the target is T13, ….
T13 sequence (peptide, biotinylated; C-terminal glycine not from CLPTM1): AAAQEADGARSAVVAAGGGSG
Described as above. This is another data set of the same source.

In assay [14] the target is T14, CLPTM1 peptide G21 (residues 273-292 with C-terminal glycine) (human).
T14 sequence (peptide, biotinylated (position not stated)): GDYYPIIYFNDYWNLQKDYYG
Nature of the assay: ELISA; biotinylated peptide on streptavidin plate, GDF15 at 100 ng/ml, OD 450-620.

Assay [15] addresses T15, CLPTM1 peptide G14 (residues 262-281 with C-terminal glycine) (human).
T15 sequence (peptide, biotinylated (position not stated)): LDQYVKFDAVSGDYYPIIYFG
The description is as above.

Assay [16] deals with T16, CLPTM1 peptide G20 (residues 292-311 with C-terminal glycine) (human).
T16 sequence (peptide, biotinylated (position not stated)): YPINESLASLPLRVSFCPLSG
Described as above.

Assay [17] concerns the target T17, CLPTM1 peptide G9 (residues 162-181 with C-terminal glycine) (human).
T17 sequence (peptide, biotinylated (position not stated)): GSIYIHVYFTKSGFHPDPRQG
The description is as above.

Assay [18] has as its target T18, CLPTM1 peptide G10 (residues 182-201 with C-terminal glycine) (human).
T18 sequence (peptide, biotinylated (position not stated)): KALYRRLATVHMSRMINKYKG
Described as above.

In assay [19] the target is T19, CLPTM1 peptide G13 (residues 242-261 with C-terminal glycine) (human).
T19 sequence (peptide, biotinylated (position not stated)): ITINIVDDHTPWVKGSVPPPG
The assay is described as above.

These are yes or no findings as the source states them, for the method shown. Some entries that bind do so weakly or less than the wild type.

B1: Growth and Differentiation Factor 15 (GDF15) (ligand, UniProt Q99988 197-308, looked up)
chain: ARNGDHCPLGPGRCCRLHTVRASLEDLGWADWVLSPREVQVTMCIGACPSQFRAANMHAQIKTSLHRLKPDTVPAPCCVPASYNPMVLIQKTDTGVSLQTYDDLLAKDCHCI
Turning to B1, the binding result in assay [1], in assay [2], in [3], in assay [4], in [5] and in assay [6] was “no binding (tested: 100 ng/ml)” in each case. The binding entry in assay [7], in [8], in [9], in [10], in assay [11] and in assay [12] was “no binding (tested: 100 ng/ml)” each time. Moreover, the binding result in [13] was “no binding (tested: 100 ng/ml)”; in assay [14], “binds”; in [15] it was “binds”; in assay [16] it was “binds”; in assay [17], “binds”; in [18], “binds”. Also, in [19], the binding entry is “binds”.

Source of the values: patent US20190256592A1.
